Results reported in the supplement of paper PMC4604168 (melanoma cell lines).
This is one part of the list. Most values come without repeats; read them as rough.

test system: MEL-HO; assay: cell count relative to DMSO control; melanoma cells; higher = more viable cells; settings: library dose: low library concentration; 72 h
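Also: cell number obtained by counting DAPI-stained nuclei in high-throughput microscope images with image analysis software, screen run in 1,536-well plates.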

SMILES	cell count
O=c1[nH]nc(Sc2ncc([N+](=O)[O-])s2)n1-c1ccc2c(c1)OCCO2 + COc1ccc(Cl)c(Nc2nc3ccccc3nc2NS(=O)(=O)c2cccc(NC(=O)C(C)(C)N)c2)c1 [XL147] (first compound 0.2 µM, partner dose 0.8 µM)	101%
C[C@@H]1CCN(C(=O)CC#N)C[C@@H]1N(C)c1ncnc2[nH]ccc12 + COc1ccc2c(c1)CCC1C2CCC2(C)C(NCCCCCCN3C(=O)C=CC3=O)CCC12 [U73122] (first compound 1 µM, partner dose 0.4 µM)	102%
CC1(C)NC(=O)N(c2ccc([N+](=O)[O-])c(C(F)(F)F)c2)C1=O [nilutamide] + c1cc(-c2cnn3cc(-c4ccc(OCCN5CCCCC5)cc4)cnc23)ccn1 [Dorsomorphin] (first compound 1 µM, partner dose 0.4 µM)	93.3%
O=c1[nH]nc(Sc2ncc([N+](=O)[O-])s2)n1-c1ccc2c(c1)OCCO2 + C=CCNC1=C2C[C@@H](C)C[C@H](OC)[C@H](O)[C@@H](C)/C=C(\C)[C@H](OC(N)=O)[C@@H](OC)/C=C\C=C(/C)C(=O)NC(=CC1=O)C2=O [Tanespimycin] (first compound 0.2 µM, partner dose 0.002 µM)	96.2%
O=C(Nc1cccc(Cl)c1)Nc1ncc(CCNc2ncnc3ccsc23)s1 + COc1cc(N2CCC(N3CCN(C)CC3)CC2)ccc1Nc1ncc(Cl)c(Nc2ccccc2S(=O)(=O)C(C)C)n1 [NVP-TAE684] (first compound 0.0008 µM, partner dose 0.08 µM)	88.9%
O=c1[nH]nc(Sc2ncc([N+](=O)[O-])s2)n1-c1ccc2c(c1)OCCO2 + C[C@]1(c2nc3c(C(N)=O)cccc3[nH]2)CCCN1 [Veliparib] (first compound 0.2 µM, partner dose 1.4 µM)	108%
O=C(Nc1cccc(Cl)c1)Nc1ncc(CCNc2ncnc3ccsc23)s1 + CCCCCCCCCCCC1=C(O)C(=O)C=C(O)C1=O [Embelin] (first compound 0.0008 µM, partner dose 1.2 µM)	115%
O=C(Nc1cccc(Cl)c1)Nc1ncc(CCNc2ncnc3ccsc23)s1 + c1cc(-c2cnn3cc(-c4ccc(OCCN5CCCCC5)cc4)cnc23)ccn1 [Dorsomorphin] (first compound 0.0008 µM, partner dose 0.4 µM)	95.1%
C[C@@H]1CCN(C(=O)CC#N)C[C@@H]1N(C)c1ncnc2[nH]ccc12 + CCCCCCCCCCCC1=C(O)C(=O)C=C(O)C1=O [Embelin] (first compound 1 µM, partner dose 1.2 µM)	91.9%
COc1cc(Nc2ncc(F)c(Nc3ccc4c(n3)NC(=O)C(C)(C)O4)n2)cc(OC)c1OC [Tamatinib] + Oc1nc(-c2ccc(C(F)(F)F)cc2)nc2c1CSCC2 [XAV939] (first compound 0.4 µM, partner dose 2 µM)	107%
O=C(O)c1ccc(-c2c[nH]c3ncc(-c4ccccc4)cc23)cc1C1CCCC1 + COc1ccc2c(c1)CCC1C2CCC2(C)C(NCCCCCCN3C(=O)C=CC3=O)CCC12 [U73122] (first compound 0.16 µM, partner dose 0.4 µM)	95.2%
O=c1[nH]nc(Sc2ncc([N+](=O)[O-])s2)n1-c1ccc2c(c1)OCCO2 + Nc1ccn([C@@H]2O[C@H](CO)[C@@H](O)C2(F)F)c(=O)n1 [gemcitabine] (first compound 0.2 µM, partner dose 0.0004 µM)	88.8%
CC1(C)NC(=O)N(c2ccc([N+](=O)[O-])c(C(F)(F)F)c2)C1=O [nilutamide] + CCCCCCCCCCCC1=C(O)C(=O)C=C(O)C1=O [Embelin] (first compound 1 µM, partner dose 1.2 µM)	114%
O=c1[nH]nc(Sc2ncc([N+](=O)[O-])s2)n1-c1ccc2c(c1)OCCO2 + CNC(=O)c1cc(Oc2ccc(NC(=O)Nc3ccc(Cl)c(C(F)(F)F)c3)cc2)ccn1 [sorafenib] (first compound 0.2 µM, partner dose 0.4 µM)	100%
Cn1cncc1[C@@](N)(c1ccc(Cl)cc1)c1ccc2c(c1)c(-c1cccc(Cl)c1)cc(=O)n2C [tipifarnib] + COC(=O)c1sccc1S(=O)(=O)Nc1ccc(Nc2ccccc2)cc1OC [GSK0660] (first compound 0.01 µM, partner dose 1 µM)	94.2%
